Test results published in publication PMC7641798.
These are yes or no findings as the source states them, for the method shown. Some entries that bind do so weakly or less than the wild type. For part of these data: Tags and fused reporters may be left off the sequences shown. Blank lines part the entries; values can stand above or below the binder they belong to.

What was measured:
[1] = target: T1, Strep-CFP-Mbl (Bacillus subtilis) (UniProt P39751); experiment: fluorescence microscopy of filaments on a supported lipid bilayer; purified protein(s), alone or two mixed, on a planar membrane of E. coli polar lipids in low salt buffer (5 mM TRIS-HCl, 0.1 mM CaCl2, 0.2 mM ATP, pH 7.5), room temperature; polymerization induced with divalent cations (10 mM MgCl2 if not stated otherwise), washed; epifluorescence or STED; KCl or NaCl added in some samples; both purified
T1 sequence: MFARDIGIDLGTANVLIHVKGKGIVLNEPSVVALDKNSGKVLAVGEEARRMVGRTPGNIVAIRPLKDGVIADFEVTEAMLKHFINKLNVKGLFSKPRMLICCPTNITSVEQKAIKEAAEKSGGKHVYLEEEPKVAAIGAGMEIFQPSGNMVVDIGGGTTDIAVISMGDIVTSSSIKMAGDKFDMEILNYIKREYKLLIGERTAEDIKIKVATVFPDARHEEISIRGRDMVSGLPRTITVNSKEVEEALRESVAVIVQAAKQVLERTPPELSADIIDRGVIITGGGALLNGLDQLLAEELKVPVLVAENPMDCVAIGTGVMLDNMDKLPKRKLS

[2] = target: T2, Strep-YFP-MreB from B. subtilis (Bacillus subtilis) (UniProt Q01465); experiment: as above
T2 sequence: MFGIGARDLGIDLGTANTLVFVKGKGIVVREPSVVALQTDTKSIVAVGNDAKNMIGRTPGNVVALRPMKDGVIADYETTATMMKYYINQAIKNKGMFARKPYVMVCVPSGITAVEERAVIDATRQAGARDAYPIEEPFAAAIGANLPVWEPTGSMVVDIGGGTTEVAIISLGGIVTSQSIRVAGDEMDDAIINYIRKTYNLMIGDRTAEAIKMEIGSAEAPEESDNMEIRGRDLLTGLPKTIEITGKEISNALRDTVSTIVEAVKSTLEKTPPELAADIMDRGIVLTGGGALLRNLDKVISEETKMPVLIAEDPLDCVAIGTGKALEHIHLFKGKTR

[3] = target: T2, Strep-YFP-MreB from B. subtilis (Bacillus subtilis); experiment: fluorescence microscopy of filaments on a supported lipid bilayer; 2 μM of a second paralog added to pre-polymerized filaments (2 μM) of a first paralog on a planar membrane, after washing, second polymerization; both purified
[4] = target: T1, Strep-CFP-Mbl (Bacillus subtilis); experiment: condition: only isolated monomer peak, polymerization not induced; sucrose density gradient ultracentrifugation; 5-15% (w/v) sucrose gradient, isolated monomer peaks from gel filtration, SW40Ti, 38.000 x g, 4 °C, about 16 h; Biorad gel filtration standard as reference; both purified
[5] = target: T1, Strep-CFP-Mbl (Bacillus subtilis); experiment: condition: only isolated monomers, polymerization not induced; 50 nM; mass photometry; Refeyn OneMP, isolated monomers, 50 nM final concentration in sample buffer, room temperature; both purified
[6] = target: T2, Strep-YFP-MreB from B. subtilis (Bacillus subtilis); experiment: fluorescence microscopy of filaments on a supported lipid bilayer; all three paralogs mixed, each 1 μM, on a planar membrane, ion-induced polymerization, confocal microscopy; both purified
[7] = target: T1, Strep-CFP-Mbl (Bacillus subtilis); experiment: condition: only expression under osmotic stress and purification buffer with 300 mM NaCl, 1 mM EDTA; SEC; Superdex 200 Increase 10/300 GL after streptactin purification; expression overnight under osmotic stress (500 mM sorbitol, 1 mM betaine); purification buffer 100 mM Tris HCl, 300 mM NaCl, 1 mM EDTA, 0.2 mM ATP, 5% glycerol pH 7.5; monomer peak (fraction A6); both purified
[8] = target: T2, Strep-YFP-MreB from B. subtilis (Bacillus subtilis); experiment: fluorescence microscopy of filaments on a supported lipid bilayer; two paralogs mixed and polymerized; data not shown; both purified
[9] = target: T2, Strep-YFP-MreB from B. subtilis (Bacillus subtilis); experiment: fluorescence microscopy of filaments on a supported lipid bilayer; a second paralog added to preformed filaments of a first paralog; data not shown; both purified
[10] = target: Strep-mCherry-MreBH (Bacillus subtilis) (UniProt P39763); experiment: fluorescence microscopy of filaments on a supported lipid bilayer; purified protein(s), alone or two mixed, on a planar membrane of E. coli polar lipids in low salt buffer (5 mM TRIS-HCl, 0.1 mM CaCl2, 0.2 mM ATP, pH 7.5), room temperature; polymerization induced with divalent cations (10 mM MgCl2 if not stated otherwise), washed; epifluorescence or STED; KCl or NaCl added in some samples; both purified
[11] = target: T1, Strep-CFP-Mbl (Bacillus subtilis); experiment: fluorescence microscopy of filaments on a supported lipid bilayer; 2 μM of a second paralog added to pre-polymerized filaments (2 μM) of a first paralog on a planar membrane, after washing, second polymerization; both purified
[12] = target: Strep-mCherry-MreBH (Bacillus subtilis) (UniProt P39763); experiment: condition: only isolated monomer peak, polymerization not induced; sucrose density gradient ultracentrifugation; 5-15% (w/v) sucrose gradient, isolated monomer peaks from gel filtration, SW40Ti, 38.000 x g, 4 °C, about 16 h; Biorad gel filtration standard as reference; both purified
[13] = target: Strep-mCherry-MreBH (Bacillus subtilis) (UniProt P39763); experiment: condition: only isolated monomers, polymerization not induced; 50 nM; mass photometry; Refeyn OneMP, isolated monomers, 50 nM final concentration in sample buffer, room temperature; both purified
[14] = target: T1, Strep-CFP-Mbl (Bacillus subtilis); experiment: fluorescence microscopy of filaments on a supported lipid bilayer; all three paralogs mixed, each 1 μM, on a planar membrane, ion-induced polymerization, confocal microscopy; both purified
[15] = target: Strep-mCherry-MreBH (Bacillus subtilis) (UniProt P39763); experiment: condition: only expression under osmotic stress and purification buffer with 300 mM NaCl, 1 mM EDTA; SEC; Superdex 200 Increase 10/300 GL after streptactin purification; expression overnight under osmotic stress (500 mM sorbitol, 1 mM betaine); purification buffer 100 mM Tris HCl, 300 mM NaCl, 1 mM EDTA, 0.2 mM ATP, 5% glycerol pH 7.5; monomer peak (fraction A6); both purified
[16] = target: T1, Strep-CFP-Mbl (Bacillus subtilis); experiment: fluorescence microscopy of filaments on a supported lipid bilayer; a second paralog added to preformed filaments of a first paralog; data not shown; both purified

binding [1]: binds | binding [2]: binds | binding [3]: binds | binding [4]: no binding | binding [5]: no binding | binding [6]: binds | binding [7]: no binding
B1: Strep-CFP-Mbl (protein, UniProt P39751 1-333)
chain: T1 sequence

binding [8]: binds | binding [9]: binds | binding [1]: binds | binding [10]: binds | binding [11]: binds | binding [12]: no binding | binding [13]: no binding | binding [14]: binds | binding [6]: binds | binding [15]: no binding
B2: Strep-mCherry-MreBH (protein, UniProt P39763 1-335)
chain: MFQSTEIGIDLGTANILVYSKNKGIILNEPSVVAVDTTTKAVLAIGADAKNMIGKTPGKIVAVRPMKDGVIADYDMTTDLLKHIMKKAAKSIGMSFRKPNVVVCTPSGSTAVERRAISDAVKNCGAKNVHLIEEPVAAAIGADLPVDEPVANVVVDIGGGTTEVAIISFGGVVSCHSIRIGGDQLDEDIVSFVRKKYNLLIGERTAEQVKMEIGHALIEHIPEAMEIRGRDLVTGLPKTIMLQSNEIQDAMRESLLHILEAIRATLEDCPPELSGDIVDRGVILTGGGALLNGIKEWLTEEIVVPVHVAQNPLESVAIGTGRSLEVIDKLQKAIK

binding [16]: binds
B3: Strep-YFP-MreB from B. subtilis (protein, UniProt Q01465 1-337)
chain: T2 sequence
